# Data taken from PubChem BioAssay (NCATS).
# Several values for one entry are separate records, joined by “and”; a condition that tells them apart may be missing. Equal values may be shown once. Inconclusive means that the source gave no clear call. Such entries were picked first, then a sample of the others. Where the call is inconclusive, the potency comes from a doubtful curve fit. Activity calls are given as the source filed them. Calls come from the whole dose curve; as a rule, active = well fitted curve in the direction sought with a large enough effect; inconclusive = small, poorly fitted or top-dose-only effect, or another doubt; inactive = no such curve, though single readings can be large; an effect the other way counts as inactive or inconclusive.
# Columns and labels:
# [1] = Viability qHTS for spleen associated tyrosine kinase inhibitor (SYKi) naive MV4-11 cells (AID 1963823); settings: MV4-11 AML viability, CellTiter-Glo luminescence, 72 h; viability (% of control): at 45 µM (top of the series); note: nearly all actives have a fitted effect of over 40% in size
# How it was run: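 CellTiter-Glo luminescence, 10 min room-temperature incubation, gave viability. Cells: naive MV4-11 (500/well), treated 72 hr at 37 C, 5% CO2.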
# [2] = Viability qHTS for spleen associated tyrosine kinase inhibitor (SYKi) drug resistant MV4-11 cells (AID 1963824); note: nearly all actives have a fitted effect of over 35% in size
# How it was run: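 SYK inhibitor-resistant MV4-11 AML cells, 500 per well, added to predispensed compounds and incubated 72 hr at 37 C, 5% CO2. Viability measured by CellTiter-Glo luminescence after 10 min at room temperature.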
# [3] = Cellular viability qHTS for adrenocortical cancer (ACC) cell line NCI-H295R (AID 1963990); settings: CellTiter-Glo ATP luminescence, 48 h; activity change, negative = viability loss: at 46.1 µM (top of the series); note: nearly all actives have a fitted effect of over 60% in size;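 for activity change, negative = viability loss: 0% = DMSO only wells and -100% = full killing with cytotoxic reference compound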
# How it was run: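 IC50 and maximal efficacy derive from four-parameter logistic modelling of titration curves, with reads scaled between DMSO-only wells (0%) and doxorubicin hydrochloride (100% inhibition). Compounds spanned up to 46 uM over 48 h.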
# Potency is the fitted concentration of half-maximal effect; tags give direction and shape of the fitted curve.
Compound,Potency [1],Potency [2],Potency [3],"activity change, negative = viability loss [3]"
CC(=O)[C@H]1CC[C@H]2[C@@H]3C=CC4=CC(=O)CC[C@@]4(C)[C@@H]3CC[C@]12C,"inconclusive: 10.6 µM [cytotoxic, partial curve] and inconclusive: 29.1 µM [cytotoxic, single point]","inconclusive: 16.8 µM [cytotoxic, partial curve, poor fit] and inconclusive: 25.9 µM [cytotoxic, single point]","inconclusive: 32.6 µM [cytotoxic, single point]",–
CCCc1cc(C)[nH]c(=O)c1CNC(=O)c1cc(-c2ccnc(N3CCN(C)CC3)c2)cc2c1cnn2C(C)C,"inconclusive: 5.8 µM [cytotoxic, partial curve] and active: 14.8 µM","inconclusive: 7.31 µM [cytotoxic, partial curve]","inconclusive: 35.5 µM [cytotoxic, single point]",–
COc1cc(N2CCC(N3CCN(C)CC3)CC2)ccc1Nc1ncc(Cl)c(Nc2ccccc2P(C)(C)=O)n1,"inconclusive: 116 nM [cytotoxic, full curve] and inconclusive: 13.2 nM [cytotoxic, full curve]",active: 130 nM and active: 23.5 nM,active: 1.12 µM,–
CCOc1nc2cccc(C(=O)O)c2n1Cc1ccc(-c2ccccc2-c2nn[nH]n2)cc1,inactive,inactive,inactive,–
CCN(CC)C(=O)c1ccc(O)c(OC)c1,"inconclusive: 8.41 µM [cytotoxic, partial curve, poor fit]",inactive,"inconclusive: 4.61 µM [cytotoxic, full curve]",–
COC(=O)[C@H]1[C@H]2C[C@@H]3c4[nH]c5cc(OC)ccc5c4CCN3C[C@H]2C[C@@H](OC(=O)c2cc(OC)c(OC)c(OC)c2)[C@@H]1OC,"inconclusive: 15 µM [cytotoxic, partial curve] and inconclusive: 8.62 µM [cytotoxic, single point]","inconclusive: 33.5 µM [cytotoxic, single point] and inconclusive: 5.44 µM [cytotoxic, single point]","inconclusive: 16.4 µM [cytotoxic, partial curve, poor fit]",–
O=C(O)CNC(=O)c1ccccc1,"inconclusive: 15 µM [cytotoxic, partial curve, poor fit]",inactive,"inconclusive: 20.6 µM [cytotoxic, partial curve, poor fit]",–
COc1ccc(Oc2cc(NCCC(F)(F)F)c3ncc(-c4ccc(C(=O)NC5CC5)c(C)c4)n3n2)c(F)c1F,"inconclusive: 0.0372 µM [cytotoxic, full curve]","inconclusive: 0.0148 µM [cytotoxic, full curve]","inconclusive: 0.0224 µM [cytotoxic, full curve, poor fit]",–
c1ccc2c(CC3=NCCN3)cccc2c1,"inconclusive: 11.9 µM [cytotoxic, partial curve]",active: 11.9 µM,inactive,–
CC(C)C(=O)Nc1cccc(C2CN3CCSC3=N2)c1 (configuration not stated),inconclusive: 0.0008 µM,inactive,"inconclusive: 29.1 µM [cytotoxic, single point]",–
CCN1C(=O)c2ccccc2C1Nc1ccc(OCCN2CCCCC2)cc1 (configuration not stated),"inconclusive: 14.6 µM [cytotoxic, partial curve, poor fit]","inconclusive: 6.51 µM [cytotoxic, partial curve, poor fit]",inactive,–
NC(N)=NCCN1CCCCCCC1,"inconclusive: 0.15 µM [cytotoxic, partial curve, poor fit]","inconclusive: 0.335 µM [cytotoxic, single point]",–,inactive: 7.14% [at 0.587 µM]
Cc1cc(O)c2c(O)c3c(O)cccc3cc2c1,"inconclusive: 23.7 µM [cytotoxic, single point]","inconclusive: 13.3 µM [cytotoxic, partial curve]","inconclusive: 10.3 µM [cytotoxic, partial curve]",–
CCN(CC)S(=O)(=O)c1ccc(C(=O)O)cc1,"inconclusive: 1.5 µM [cytotoxic, partial curve, poor fit]",inactive,inactive,–
